# Hit rate of the full screen: of about 310,000 compounds, about 14,000 (4.5%) showed an effect of 50% or more. Effects have a minus sign here. The list shows a part of the results.
# Target: human ether-à-go-go-related gene (hERG) potassium channel (human, UniProt Q12809)
# Test: primary screen, population patch clamp on CHO cells stably expressing hERG
# 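Also: peak tail current of the secondary pulse compared with the same well before compound.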
# human ether-à-go-go-related gene (hERG) potassium channel, sequence (Q12809 whole entry, looked up): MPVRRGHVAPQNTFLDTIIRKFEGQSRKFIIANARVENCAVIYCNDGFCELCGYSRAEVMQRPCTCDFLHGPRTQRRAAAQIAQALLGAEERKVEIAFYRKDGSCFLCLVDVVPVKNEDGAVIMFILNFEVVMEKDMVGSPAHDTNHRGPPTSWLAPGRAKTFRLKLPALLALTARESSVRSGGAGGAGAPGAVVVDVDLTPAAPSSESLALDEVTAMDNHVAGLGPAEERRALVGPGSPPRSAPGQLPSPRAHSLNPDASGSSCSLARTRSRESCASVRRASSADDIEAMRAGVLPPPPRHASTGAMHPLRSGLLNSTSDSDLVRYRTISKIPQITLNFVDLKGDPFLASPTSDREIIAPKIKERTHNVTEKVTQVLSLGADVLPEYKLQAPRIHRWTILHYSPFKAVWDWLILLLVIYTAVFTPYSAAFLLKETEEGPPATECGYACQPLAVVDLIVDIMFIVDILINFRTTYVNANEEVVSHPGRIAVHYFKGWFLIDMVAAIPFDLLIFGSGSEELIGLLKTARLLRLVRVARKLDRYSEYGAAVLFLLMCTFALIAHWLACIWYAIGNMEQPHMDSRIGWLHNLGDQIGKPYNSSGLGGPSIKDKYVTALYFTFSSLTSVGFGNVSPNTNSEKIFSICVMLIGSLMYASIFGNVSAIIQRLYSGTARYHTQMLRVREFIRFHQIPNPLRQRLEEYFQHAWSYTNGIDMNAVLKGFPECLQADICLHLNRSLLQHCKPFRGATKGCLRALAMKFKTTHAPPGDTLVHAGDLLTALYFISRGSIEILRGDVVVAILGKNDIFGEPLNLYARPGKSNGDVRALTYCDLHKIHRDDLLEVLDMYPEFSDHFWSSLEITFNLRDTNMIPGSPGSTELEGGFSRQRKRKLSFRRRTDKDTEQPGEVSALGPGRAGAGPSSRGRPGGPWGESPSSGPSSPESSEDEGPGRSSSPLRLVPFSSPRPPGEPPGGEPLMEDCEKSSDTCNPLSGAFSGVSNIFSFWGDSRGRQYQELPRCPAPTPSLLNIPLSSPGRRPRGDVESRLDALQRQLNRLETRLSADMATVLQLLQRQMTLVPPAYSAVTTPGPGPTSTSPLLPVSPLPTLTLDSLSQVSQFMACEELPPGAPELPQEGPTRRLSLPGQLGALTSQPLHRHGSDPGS
row,Structure (SMILES),"hERG current change (%, negative = inhibition) at 10uM [%]"
1,COc1ccc(-c2n[nH]c(=S)n2Cc2ccccc2)cc1,-5.21
2,Cc1ccc(C(=O)CSc2n[nH]c(C)n2)cc1,12.7
3,Cc1ccccc1N=Cc1cc2c(cc1O)OC(N)=C(C#N)C2c1ccccc1 (centres unmarked),-1.79
4,CO/N=C/c1c(C(=O)OC)nn(-c2ccccc2)c1Cl,7.68
5,CCOC(=O)c1cn(Cc2ccc(C)cc2)nn1,6.34
6,COc1ccc(CN2CCN(C(=O)CCC(=O)Nc3nnc(C(C)C)s3)CC2)cc1F,-6.95
7,Cc1ccccc1NC(=O)C(=O)NCCc1ccccc1,8.13
8,O=C(NC(=S)N1CCOCC1)C12CC3CCC(CC(C3)C1)C2,13.2
9,O=C(CN1CCOCC1)Nc1ccccc1F,0.862
10,O=C(O)c1ccccc1-c1ccccc1C(=O)Nc1cccc(Br)c1,8.66
11,Cl.O=C(NCCCn1ccnc1)C1c2ccccc2Oc2ccccc21,-20.1
12,CCC(C)(C)n1nnnc1C(c1ccccc1)N1CCc2ccccc2C1 (centres unmarked),-18.9
13,CSc1nc2c(c(=O)[nH]1)C(c1cccs1)C1=C(CCCC1=O)N2 (centres unmarked),4.91
14,CCn1cc(C(=O)NCCCN2CC(C)CC(C)C2)c(=O)c2cc(S(=O)(=O)N(C)C)ccc21 (centres unmarked),-55.5
15,COc1cc2ncnc(NCc3ccccc3F)c2cc1OC,6.91
16,CC(C)C[C@@H](COc1ccccc1)N1CCN(CC(C)C)CCC1=O,-48.5
17,CCN(CC)S(=O)(=O)c1ccc(NN=c2c(=O)c3ccccc3c2=O)cc1,-0.653
18,CC(C)(C)c1cc(C(=O)N/N=C/c2ccccn2)n[nH]1,0.82
19,O=C(CSc1cccc[n+]1[O-])C12CC3CC(CC(C3)C1)C2,9.58
20,CCN1C(=O)C(O)(CC(=O)C(C)(C)C)c2cc(Br)ccc21 (centres unmarked),4.25

row,Structure (SMILES),"hERG current change (%, negative = inhibition) at 10uM [%]"
1,Br.Cn1nc(-c2ccc(OCC(=O)N3CCN(Cc4ccccc4)CC3)cc2)c2ccccc2c1=O,-42.2
2,NC(=O)CC(NC(=O)c1ccc(Br)cc1)c1ccc(NC2CCCCCCC2)c([N+](=O)[O-])c1 (centres unmarked),2.85
3,Cc1ccc(-c2nnc(N3CCCCC3)c3ccccc23)cc1S(=O)(=O)NCC1CCCO1 (centres unmarked),-16
4,O=c1c2[nH]c3ccc(F)cc3c2ncn1CCN1CCOCC1,-41.1
5,COc1cccc(C(=O)N2CCSC2=S)c1,-4.11
6,COc1cc(SC)ccc1C(=O)OC(C)C(=O)Nc1ccc(NC(C)=O)cc1 (centres unmarked),1.82
7,COc1ccc(CCNC2=CC(=O)N(c3ccc(F)cc3)C2=O)cc1,11.3
8,Cc1cccn2c(=O)c3cc(C(=O)NCCCOC(C)C)sc3nc12,-6.24
9,COc1ccc(/C=C2\N=C3CCCCCN3C2=O)cc1,-14.2
10,CN(C)C(=O)CN1c2cccc3cccc(c23)S1(=O)=O,14.8
11,Cc1ccc(OCC(=O)N/N=C/c2ccco2)cc1,-29.5
12,Cc1ccccc1NC(=O)NCC1CCN(c2ccc(S(=O)(=O)N3CCOCC3)cc2)CC1,-1.19
13,CN1CCC(OC(=O)COc2ccccc2)CC1.Cl,15.1
14,COc1ccc(-c2cc3nc(C)c(CCC(=O)N4CCN(c5ccccn5)CC4)c(C)n3n2)c(OC)c1,-36
15,Fc1ccc(-n2c(-c3ccco3)n[nH]c2=S)cc1,28
16,CCN(c1ccccc1)S(=O)(=O)c1ccc(Cl)c(C(=O)NCc2ccco2)c1,-46.3
17,Cc1[nH]nc(SCC(=O)Nc2cccc(O)c2)c1[N+](=O)[O-],27.9
18,O=C(NC(=O)c1cccc(Cl)c1)OC[C@@H]1CCCN2CCCCC12 (some centres unmarked),-60.9
19,C/C(=N\N(c1ccccc1)c1ccccc1)c1ccco1,-17.3
20,Cc1ccc(C)c(N2CCN(CCCNC(=O)CCn3c(=O)c4cccn4c4cccnc43)CC2)c1,-70

row,Structure (SMILES),"hERG current change (%, negative = inhibition) at 10uM [%]"
1,Cn1ncc(N=Cc2ccc([N+](=O)[O-])cc2)c1C(=O)N1CCOCC1,-12.3
2,CCOc1ccc(C(C)=O)cc1CSc1nnc(N)s1,11.2
3,Cc1cccc(OCCOc2ccc(/C=N/NC(=O)Cc3nnc(N)s3)cc2)c1,11.7
4,Cc1ccsc1CN(C)Cc1nc(C2CC2)no1,-1.13
5,Br.COc1ccc2c3c1O[C@H]1C[C@@H](O)C=C[C@@]31CCN(C)C2,2.76
6,COc1cccc(N/C=C(\C#N)c2ccc(OCCCF)cc2)c1,8.19
7,Cn1nc(C(F)(F)F)cc1C(=O)NC1CCCCCC1,6.46
8,CC1(C)Cc2c(c(=S)nc(-c3ccccc3)n2Cc2cccnc2)CO1,0.687
9,CCCOc1ccc(CC(=O)NNC(=S)Nc2ccccc2)cc1Br,15.2
10,CC(=O)c1sc2nc(-c3cccs3)ccc2c1N,10.5
11,COc1ccc(CC(NC(C)=O)C(=O)NC2CCN(C(=O)Nc3ccccc3C)CC2)cc1OC (centres unmarked),4.13
12,CCSc1nc(-c2ccccc2)cc(=O)[nH]1,-2.62
13,COc1ccccc1CNCCc1ccc(F)cc1.O=C(O)C(=O)O,-33.8
14,CC1(N(O)C=C2C=CC(=O)C=C2)CCCCC1=O (centres unmarked),35.1
15,CCOC(=O)c1sc(=S)n(-c2ccccc2)c1N,0.147
16,COc1ccc(CN2CCNC(=O)C2CC(=O)NC2CCOCC2)c(F)c1 (centres unmarked),-25.4
17,Cc1cc(=O)n(-c2ccc(O)cc2)[nH]1,3.97
18,CCC(C)(NC(=O)Cc1c[nH]c2ccccc12)C(=O)NC1CCCCC1 (centres unmarked),2.32
19,COc1ccccc1C1CC(c2ccco2)=NN1S(C)(=O)=O (centres unmarked),7.02

# Reference: article PMC4336329 (PLoS ONE, 2015)
